Experimental data: the RNAGym collection of RNA variant scans (doi:10.7554/elife.90254)
Read counts are not given, so values of variants with three or more changes are uncertain.

B1: LINE1-mini (parent)
chain: GGCAGAGCUCAACACAGCGUGGCAAAGUGGCUGUGGCUAGACUGCC

Variants of: B1
Assay: self-cleavage, relative activity (ratio to wild type); higher = more cleavage; in vitro, sequencing; the parent is a self-cleaving ribozyme

Row | Variant | self-cleavage
1 | A16U A24G G29U | 0.04
2 | A16U G22C C46G | 0.07
3 | G17C C23U U32A | 0.13
4 | C18A A26C G30A | 0.17
5 | G17C A24G A26U G29U C31U C46A | 0.03
6 | G17C U38G C46A | 0.01
7 | G17U G30U G44C | 0.01
8 | G17A C31G G40U | 0.01
9 | G17U G22A U32A G33A U43A | 0.01
10 | G17U A26C C46U | 0.06
11 | A16U G30A C42G | 0.14
12 | A16U C23G C37U | 0.06
13 | G17U A25U U38A | 0.02
14 | G17A G19A G33C | 0.03
15 | G17U C18A U20G A24U | 0.05
16 | G17U U28G G40U C42A | 0.01
17 | A16U A24U C37A | 0.1
18 | G17U A25G U28G | 0.15
19 | A16U G17A C18G U20A C42G | 0.05
20 | G17C C18U C23G G35U | 0.01
21 | G17U A26C C31A G44C | 0.38
22 | G17U A39U U43C | 0.02
23 | G17A U28A G35U | 0.04
24 | G17C U20A U28G C42A | 0.03

Row | Variant | self-cleavage
25 | G17U G40A C46G | 0.01
26 | G17C C23A C42U | 0.17
27 | G17C U20A G36U | 0
28 | A16U C37U G40A | 0.13
29 | G17C G22C U28C | 0.17
30 | G17C G21C C23G | 0.57
31 | G17C G30U C45A | 0.05
32 | G17U G21C U28C G36U | 0.05
33 | G17C C23A G30A C45U | 0.05
34 | G17A U28G G33A G35C C37U | 0.01
35 | G17C C18A G27U U28C C46A | 0.04
36 | G17U G19U U32C C37A A41G C46A | 0
37 | G17U C18U G40U | 0.01
38 | G17A G29C G33U U38C | 0.02
39 | G17C G21U G30U U32A A41C | 0.01
40 | C18A G21A A24G A39G | 0.09
41 | G17A C31U C37U C42G C46G | 0.01
42 | G17U G19C U20A G35U C45G | 0.01
43 | G17A C42G C45G | 0.03
44 | G17A C23U C31G G36U | 0.03
45 | G17A G21A C23G U38A | 0.72
46 | G17C C31A U32G C42U | 0.09
47 | G17U G35U U43G | 0.08
48 | A16U G30U G36C | 0.01

Row | Variant | self-cleavage
49 | A16U G19U G29C | 0.19
50 | C18A G21C G35A C45G | 0
51 | A16G U38G A41C | 0
52 | G17U U28G G30A | 0.31
53 | G17U G22C U43G | 0.02
54 | G17U G21U G44U | 0.03
55 | G17A A41U U43A | 0.24
56 | G17C G21C G22U U32G G36C | 0.08
57 | G17C G22A G44U | 0.08
58 | G17U G29A A39U C46A | 0.03
59 | C18A A24G G30U C45G | 0.05
60 | G17A C18G G29A | 0.08
61 | A16U C18G G22C C46G | 0.05
62 | G17U G21A U38C | 0.27
63 | G17C G27U G40A | 0.11
64 | G17C A25C G44U | 0
65 | C18A C23G A24U C31A G40U | 0
66 | G17C C23G G40A U43G | 0.2
67 | G17U G27A A41U | 0.08
68 | G17C A26U A41C | 0.04
69 | C18A C23G U34C U43C | 0.02
70 | C18A G19A C37U G40C | 0.1
71 | G17C U28A C37U | 0.06
72 | G17A G19U G22A | 1

Row | Variant | self-cleavage
73 | G17C G19A C37A A41U | 0.02
74 | G17U C18U G33A | 0.03
75 | G17U C18U G27C | 0.05
76 | G17C G33U G36U | 0.02
77 | G17C C23U A25U | 1.51
78 | C18A A26C U38A A39C C45U | 0.57
79 | G17U G21A U28G C31A G36U | 0.02
80 | G17C G21C G22C A26G G29U | 0.06
81 | G17U U34G G44A | 0.01
82 | A16U G17U C45U | 0.02
83 | G17U C31G G44A | 0.37
84 | G17A G27A A39U | 0.02
85 | G17U C23A C31A U38G | 0
86 | C18A A25G A26C U32C G44C C45A | 0.01
87 | G17U G22U A24U G36U | 0.04
88 | G17U G33C C45A | 0.02
89 | A16U C23U U32A G40C | 0.08
90 | A16U G17A A26G G35U | 0.03
91 | G17U G19C G22C A26G | 0.03
92 | G17C G27U G35U | 0.09
93 | G17A U20G A26U C42A | 0
94 | G17U A24C C31U A39U | 0.08
95 | G17U U20G U28A U38G | 0.02
96 | C18A A25G C46U | 0.04

Row | Variant | self-cleavage
97 | A16U A25C C31U G35A | 0.01
98 | A16U C18A A25C U34G | 0.01
99 | G17U G19U G22C C23G A24C | 0.38
100 | G17U G35A U43A | 0.02
101 | G17C A41U U43C | 0.04
102 | G17A C18U U32A G40U | 0.13
103 | G17C G21U G22A G27C | 0.3
104 | G17A C23A C37A C46U | 0.07
105 | G17C U20A G29A | 0.08
106 | G17A G19U C31G G40C | 0.02
107 | G17C G29U C45G C46U | 0.01
108 | G17C A24U A26G G30U C46G | 0.03
109 | C18A G21U C31U U32G | 0.04
110 | G17U C18U G19C U32C | 0.08
111 | C18A C23G U43A | 0.02
112 | G17U C31G C45A | 0.54
113 | G17U G21A G40C U43C | 0.05
114 | G17C U32A G40A | 0.14
115 | G17A U28C A41G | 0.01
116 | G17U A25C U28G G35C | 0.07
117 | G17U G19U G27C G44U | 0.16
118 | G17U G19A G30A | 2.07
119 | A16G U34C A41G | 0.01
120 | G17C C18U C23U | 0.05

Row | Variant | self-cleavage
121 | G17U C37U C46U | 0.05
122 | G17C U20C G21A A24G | 0.32
123 | G17A C31U C46A | 0.5
124 | C18A A26C C31U C37U C46A | 0.04
125 | A16U A25C A26C G27A | 0.05
126 | G17U G35C C42U | 0.03
127 | A16G U34G G36U | 0.01
128 | G17U G21A C45A | 0.14
129 | G17C C23U C31U G33U | 0.08
130 | A16U A25G A39U | 0.08
131 | G17U C18A G19C | 0.81
132 | A16U A24G C42U | 0.13
133 | A16U G21U A25G | 0.11
134 | A16U G19U U20A G29C G40C | 0.2
135 | A16U C23A C46U | 0.28
136 | A16U G17U U34C | 0.07
137 | G17C G21U C31G | 0.13
138 | G17U C18G G19C | 0.43
139 | G17A G27A C37G | 0.04
140 | G17A G30C G36A | 0.03
141 | G17A U20C G21C A26C | 0.33
142 | G17C G19C U20A G29C | 0.04
143 | G17C G30U A41G | 0.01
144 | G17A A26U C45G | 0.04

Row | Variant | self-cleavage
145 | G17A U20A G21A U43A | 0
146 | G17C G22A C46A | 0.11
147 | G17A G21U G27C G33C A41G | 0.01
148 | C18A G21A G40A C46A | 0.01
149 | G17U G35C G44C | 0.01
150 | G17A U28G C31A G35U | 0.04
151 | G17U U32A C37A | 0.03
152 | G17U U32A C37G | 0.06
153 | G17C G33U C37G A39U | 0.06
154 | G17A U20G A26U | 0.09
155 | C18A A25U C45U | 0.38
156 | G17U A26G G35U | 0.09
157 | G17U U34C A39G A41U U43C | 0.01
158 | G17U G22A G40U | 0.06
159 | G17U C23U C31U | 0.01
160 | A16U G17U U28C G40C | 0.02
161 | A16U C37A G40A G44A | 0.02
162 | A16U G19U C46A | 0.23
163 | G17A A26G U32G | 0.01
164 | A16U C23U A24G C42U | 0.02
165 | A16U C18A G30U | 0.03
166 | G17C U28A G44C | 0.06
167 | G17A C18A C31G U32C | 0.04
